{"source": "PubChem BioAssay AID504333", "about": "(National Center for Advancing Translational Sciences (NCATS), 2011)", "note": "In all, about 360,000 compounds went through this assay and about 16,000 (4.4%) were called active. The inconclusive results got no clear call from the source; some entries with a clear call stand among them for comparison. Calls come from the whole dose curve; as a rule, active = well fitted inhibition curve with a large enough effect; inconclusive = small, poorly fitted or top-dose-only effect; inactive = no such curve, though single readings can be large or run the other way. Where the call is inconclusive, the potency comes from a doubtful curve fit. % is set by controls: 0 for no effect and ±100 for the full control effect; potency is the fitted concentration of half-maximal effect; tags give direction and shape of the fitted curve."}
{"biological_target": "Bromodomain adjacent to zinc finger domain protein 2B (Homo sapiens) (UniProt Q9UIF8)", "sequence (Q9UIF8 whole entry, looked up, the tested form may be a part)": "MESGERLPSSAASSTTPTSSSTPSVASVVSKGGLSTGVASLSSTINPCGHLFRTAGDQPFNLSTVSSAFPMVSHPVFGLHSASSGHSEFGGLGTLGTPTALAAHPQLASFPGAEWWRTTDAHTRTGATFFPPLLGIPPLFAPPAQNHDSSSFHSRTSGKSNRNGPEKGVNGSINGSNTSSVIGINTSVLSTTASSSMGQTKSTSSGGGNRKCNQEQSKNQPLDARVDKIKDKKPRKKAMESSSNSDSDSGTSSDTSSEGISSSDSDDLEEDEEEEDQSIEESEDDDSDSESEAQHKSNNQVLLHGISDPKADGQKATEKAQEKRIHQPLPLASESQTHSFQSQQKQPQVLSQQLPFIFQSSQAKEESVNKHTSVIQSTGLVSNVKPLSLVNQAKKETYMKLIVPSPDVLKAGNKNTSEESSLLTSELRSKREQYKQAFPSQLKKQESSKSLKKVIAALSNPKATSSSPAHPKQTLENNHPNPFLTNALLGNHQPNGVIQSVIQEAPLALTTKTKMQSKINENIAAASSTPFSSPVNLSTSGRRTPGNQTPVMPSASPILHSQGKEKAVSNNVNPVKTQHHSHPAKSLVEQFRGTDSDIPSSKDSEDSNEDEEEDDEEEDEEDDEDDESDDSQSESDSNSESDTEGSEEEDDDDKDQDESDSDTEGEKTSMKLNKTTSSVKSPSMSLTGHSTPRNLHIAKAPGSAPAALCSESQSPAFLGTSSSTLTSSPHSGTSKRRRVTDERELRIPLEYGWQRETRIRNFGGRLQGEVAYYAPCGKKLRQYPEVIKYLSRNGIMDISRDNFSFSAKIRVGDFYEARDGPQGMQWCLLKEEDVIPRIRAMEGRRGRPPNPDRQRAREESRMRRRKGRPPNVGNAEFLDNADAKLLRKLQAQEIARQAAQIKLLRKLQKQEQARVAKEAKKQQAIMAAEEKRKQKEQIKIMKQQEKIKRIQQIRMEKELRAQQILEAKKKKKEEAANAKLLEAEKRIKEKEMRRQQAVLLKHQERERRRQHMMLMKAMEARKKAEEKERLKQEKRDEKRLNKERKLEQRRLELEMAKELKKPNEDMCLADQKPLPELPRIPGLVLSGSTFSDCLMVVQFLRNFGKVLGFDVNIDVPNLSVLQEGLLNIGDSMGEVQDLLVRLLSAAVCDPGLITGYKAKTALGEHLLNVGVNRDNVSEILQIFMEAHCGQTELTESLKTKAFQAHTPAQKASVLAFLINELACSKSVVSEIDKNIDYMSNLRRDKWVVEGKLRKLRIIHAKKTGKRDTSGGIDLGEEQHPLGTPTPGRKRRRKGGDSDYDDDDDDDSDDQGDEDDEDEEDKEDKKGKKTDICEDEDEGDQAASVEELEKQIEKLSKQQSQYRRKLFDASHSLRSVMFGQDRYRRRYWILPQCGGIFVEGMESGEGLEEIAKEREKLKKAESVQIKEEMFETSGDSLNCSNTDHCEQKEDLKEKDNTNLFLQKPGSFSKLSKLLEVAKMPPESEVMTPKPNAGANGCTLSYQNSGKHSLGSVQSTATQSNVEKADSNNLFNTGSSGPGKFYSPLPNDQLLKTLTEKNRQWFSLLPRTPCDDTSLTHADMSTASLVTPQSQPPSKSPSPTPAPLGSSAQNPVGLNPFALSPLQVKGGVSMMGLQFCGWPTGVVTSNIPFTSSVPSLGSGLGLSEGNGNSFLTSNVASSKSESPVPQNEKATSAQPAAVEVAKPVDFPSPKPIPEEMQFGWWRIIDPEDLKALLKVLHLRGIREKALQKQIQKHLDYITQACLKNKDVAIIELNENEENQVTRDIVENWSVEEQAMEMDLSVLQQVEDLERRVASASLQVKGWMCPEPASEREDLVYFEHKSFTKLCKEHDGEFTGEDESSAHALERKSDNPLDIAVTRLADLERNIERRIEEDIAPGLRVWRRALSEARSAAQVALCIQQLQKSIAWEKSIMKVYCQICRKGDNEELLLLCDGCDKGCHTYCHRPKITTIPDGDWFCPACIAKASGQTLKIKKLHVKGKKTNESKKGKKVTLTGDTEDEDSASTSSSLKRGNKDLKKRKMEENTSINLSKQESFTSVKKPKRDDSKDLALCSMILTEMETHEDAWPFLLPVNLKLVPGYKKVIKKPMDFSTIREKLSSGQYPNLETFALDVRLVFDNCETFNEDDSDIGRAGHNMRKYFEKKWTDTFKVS", "test": "qHTS Assay for Inhibitors of BAZ2B; note: nearly all actives have a fitted effect of over 60% in size", "conditions": "AlphaScreen BAZ2B-H3K14Ac peptide displacement; activity change, negative = inhibition: at 114 µM (top of the series)", "summary_of_the_method": "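Multi-concentration screen (max 110 uM) measuring displacement of acetylated histone H3 peptide from BAZ2B by AlphaScreen, using 50 nM protein, 50 nM peptide and 10 ug/mL streptavidin donor plus Ni-chelate acceptor beads.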"}
{"smiles": "N#CC1=C(S)N(c2ccc(F)cc2)C2(CCCCC2)NC1=O", "Potency": "inconclusive: 89.1 µM [inhibitor, single point]"}
{"smiles": "NC(Cc1ccccc1)C(O)(c1ccccc1)c1ccccc1", "note": "(centres undefined)", "activity change, negative = inhibition": "inactive: 6.05%"}
{"smiles": "CC1=C(C(=O)OC(C)C)C(c2ccc(Br)s2)NC(=O)N1", "note": "(centres undefined)", "Potency": "inconclusive: 3.55 µM [inhibitor, full curve, poor fit]"}
{"smiles": "ON=C1c2cc(OCCN3CCCCC3)ccc2-c2ccc(OCCN3CCCCC3)cc21", "Potency": "inconclusive: 70.8 µM [inhibitor, single point]"}
{"smiles": "Cc1cc(C)n(CC(=O)c2ccc(Br)cc2)c(=O)c1C#N", "Potency": "inconclusive: 35.5 µM [inhibitor, single point]"}
{"smiles": "Cc1ccc(Cn2c(CO)cnc2SCC(=O)Nc2cccc(F)c2)cc1", "Potency": "inconclusive: 28.2 µM [inhibitor, full curve, poor fit]"}
{"smiles": "O=C(CNc1cc(S(=O)(=O)N2CCOCC2)ccc1N1CCCC1)N1CCc2ccccc21", "Potency": "inconclusive: 22.4 µM [inhibitor, partial curve]"}
{"smiles": "COc1cc(-c2nnc(SCCOc3ccccc3)o2)cc(OC)c1OC", "activity change, negative = inhibition": "inactive: 2.64%"}
{"smiles": "Cc1ccc2occ(C3NC(C(=O)O)CS3)c(=O)c2c1", "note": "(centres undefined)", "Potency": "active: 50.1 µM"}
{"smiles": "CC(C)(C)c1ccc(C(=O)Nc2nnc3n2CCS3)cc1", "activity change, negative = inhibition": "inactive: 2.09%"}
{"smiles": "Cc1ccc(C(C)C)cc1OCCCCN1CCCC1", "Potency": "active: 50.1 µM"}
{"smiles": "C=CCN1C(=O)C(CC(=O)O)SC1=Nc1ccc(N=Nc2ccccc2)cc1", "note": "(centres undefined)", "Potency": "active: 39.8 µM"}
{"smiles": "CCn1c(C)c(C)c2cc(C(=O)NCCc3cc(OC)ccc3OC)ccc21", "Potency": "active: 31.6 µM"}
{"smiles": "O=C(COc1ccccc1)Nc1nc(-c2cccnc2)cs1", "activity change, negative = inhibition": "inactive: 8.66%"}
{"smiles": "COc1ccc(C2=CC(=O)C[C@H](c3ccc(OC)c(OC)c3)C2)cn1", "activity change, negative = inhibition": "inactive: 0.619%"}
{"smiles": "CCc1nnc(NC(=O)c2nc3nccc(C)n3n2)s1", "Potency": "active: 70.8 µM"}
{"smiles": "CSCCC(NC(=O)c1ccco1)C(=O)N1CCCC(C(F)(F)F)C1", "note": "(centres undefined)", "activity change, negative = inhibition": "inactive: 9.02%"}
{"smiles": "NS(=O)(=O)c1ccc(CNC(=O)CNC(=O)c2ccc(F)cc2)cc1", "activity change, negative = inhibition": "inactive: -25.7%"}
{"smiles": "CN(C)c1ccc2nc3c(=O)[nH]c(=O)nc-3n(CC(O)C(O)C(O)CO)c2c1", "note": "(centres undefined)", "Potency": "active: 39.8 µM"}
{"smiles": "CCN(CC)C(=O)C1CCN(Cc2ccc(OCc3ccccc3)cc2)CC1", "Potency": "inconclusive: 89.1 µM [inhibitor, single point]"}
{"smiles": "O=C(c1ccccc1)c1ccc(OCCCN2CCCCC2)cc1", "Potency": "active: 31.6 µM"}
{"smiles": "C=CCc1cccc2cc(C(=O)O)c(=O)oc12", "activity change, negative = inhibition": "inactive: -38.1%"}
{"smiles": "CCC/C=N/Nc1nc2ccccc2s1", "Potency": "inconclusive: 79.4 µM [inhibitor, single point]"}
{"smiles": "CC1CC(C)CN(CCCNC(=O)C2CCN(c3ncnc4c3sc3cccc(F)c34)CC2)C1", "note": "(centres undefined)", "Potency": "inconclusive: 3.98 µM [inhibitor, single point]"}
